The campaign covered roughly 110,000 compounds. About 230 (0.21%) showed an effect of 50% or more. The list shows a part of the results.
Target: DPAP1 (Plasmodium falciparum, UniProt Q8IIJ9)
Test: primary screen, percent inhibition; read by cleavage of a fluorogenic dipeptide substrate; higher = more effect of the substance
Design: species or system P. falciparum D10 trophozoite lysates; single well
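Note: 30 min substrate incubation versus DMSO and 10 µM JCP410 controls.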

DPAP1, sequence (Q8IIJ9 whole entry, looked up): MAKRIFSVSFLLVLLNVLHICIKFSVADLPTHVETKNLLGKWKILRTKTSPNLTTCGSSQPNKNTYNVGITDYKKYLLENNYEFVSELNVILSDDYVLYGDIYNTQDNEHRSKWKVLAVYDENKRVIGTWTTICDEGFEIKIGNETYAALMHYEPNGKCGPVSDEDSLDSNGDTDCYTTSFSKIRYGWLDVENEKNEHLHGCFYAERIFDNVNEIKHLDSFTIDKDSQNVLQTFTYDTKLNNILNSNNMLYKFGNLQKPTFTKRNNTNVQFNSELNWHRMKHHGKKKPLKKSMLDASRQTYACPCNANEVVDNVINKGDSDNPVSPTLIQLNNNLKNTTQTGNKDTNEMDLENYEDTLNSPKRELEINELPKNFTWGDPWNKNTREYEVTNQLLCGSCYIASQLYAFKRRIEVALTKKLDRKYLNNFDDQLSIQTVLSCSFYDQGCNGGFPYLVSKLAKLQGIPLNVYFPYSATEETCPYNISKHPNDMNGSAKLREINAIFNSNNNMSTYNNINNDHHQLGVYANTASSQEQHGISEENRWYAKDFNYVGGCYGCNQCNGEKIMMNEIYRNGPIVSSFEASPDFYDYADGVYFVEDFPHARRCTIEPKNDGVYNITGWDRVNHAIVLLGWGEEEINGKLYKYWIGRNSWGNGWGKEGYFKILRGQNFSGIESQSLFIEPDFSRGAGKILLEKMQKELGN

Compound | % Inhibition @ 10 uM [%]
Cc1cc(C)n(-c2ncnc3sc4c(c23)CCCC4)n1 | -6.68
Cc1cccc(C)c1NC(=O)C(c1ccccc1)N(C)C(=O)CN1C(=O)c2ccccc2C1=O (stereo not shown) | 17.7
COc1ccc(CNC(=O)Nc2cccs2)cc1OC | 2.25
NC(=O)CCC(=O)NC12CC3CC(CC(C3)C1)C2 | -2.6
Clc1ccc(OCCCCCCN2CCCC2)cc1 | -2.12
Cc1ccc(NC(=O)c2cc(S(=O)(=O)N3CCCCC3)ccc2Br)cc1 | 1.27
Cc1ccc(NC(=O)C2(NC(=O)c3ccccn3)CCCCC2)cc1Br | -0.69
O=C1CN(S(=O)(=O)c2ccccc2)CCN1S(=O)(=O)c1ccccc1 | 60.8
Cc1ccc(-c2onc(C)c2C)cc1S(=O)(=O)N(C)Cc1ccccc1 | -7.87
CNC(=O)c1ccc(CS(=O)c2ccccc2C)o1 (stereo not shown) | 5.66
COc1cccc(N2C(=O)c3cccc4cccc(c34)C2=O)c1 | 0.661
CCSc1nnc(NC(=O)CCN2C(=S)NC(C)(C)CC2C)s1 (stereo not shown) | 4.33
CCNC(=O)/C(=C\c1ccc2c(c1)OCO2)NC(=O)c1cccc(Br)c1 | -1.07
Cn1nnnc1SCCCNCc1ccccc1OCc1ccccc1 | 2.25
CCCCNC(=O)CSc1ncccc1C(=O)NCCC1=CCCCC1 | 3.04
COc1cccc(C(=O)c2sc3nc4c(c(-c5cccnc5)c3c2N)CCC4)c1 | 7.97
O=C(O)C1CCCCC1C(=O)N(Cc1ccccc1)Cc1ccccc1 (stereo not shown) | 7.63
Cc1ccc(N2CCN(S(=O)(=O)N(C)C)CC2)cc1Cl | -2.03
O=C(Cn1ncn2nc(-c3cccs3)cc2c1=O)N1CCN(c2ccccn2)CC1 | -2.85
CCN1CCN(C(=O)c2cc3c(-c4cccc(OC)c4)nn(C)c3s2)CC1 | 1.23
Cc1ccc(-n2nc3c(N4CCC(C(=O)N5CCCCCC5)CC4)nnc(C)c3c2C)cc1 | -2.32
C#CCN1C(=O)S/C(=C/c2ccc(O)c(Br)c2)C1=O | 0.472
OCCN1CN(c2nc3ccccc3s2)CN(c2nc3ccccc3s2)C1 | 3.54
CCc1c(CN2CCC(N3CCCCC3)CC2)csc1C | -0.999
COCCCn1c(C23CC4CC(CC(C4)C2)C3)cn2c3c(=O)n(C)c(=O)n(C)c3nc12 | 1.82
Cn1c(=O)c2c(nc(CN3CCCCC3)n2Cc2ccc(Cl)cc2Cl)n(C)c1=O | -2.29

Compound | % Inhibition @ 10 uM [%]
OCC1CCCN(C(=S)NCc2ccccc2)C1 (stereo not shown) | -2.5
CC1=C(C(=O)OCC(C)C)C(c2ccc(Cl)cc2Cl)NC(=O)N1 (stereo not shown) | -2.35
CCC(C1=NN2C(=N)/C(=C\c3coc4ccccc4c3=O)C(=O)N=C2S1)c1ccccc1 (stereo not shown) | -2.19
Cc1nnc2c(NCCCN3CCC(Cc4ccccc4)CC3)nc3ccccc3n12 | -6.05
CCN(CC)C(=O)Cn1c(=O)oc2ccccc21 | -0.988
O=C(NCCc1nc2ccccc2n1Cc1ccccc1F)c1ccccc1 | 2.83
O=C(O)c1cc2nc(-c3ccc4c(c3)OCO4)cc(C(F)(F)F)n2n1 | 0.0265
COc1cc2c(cc1OC)-c1nnc(-c3ccc(Br)o3)n1C(C)(C)C2 | -0.828
C/C(=N\CCc1ccccn1)c1c(C)nn(-c2ccc(Br)cc2Br)c1O | -5.36
Cc1cccc(C2C3=C(O)CCCC3=Nc3c2c(=O)n(C)c(=O)n3C)c1 (stereo not shown) | -1.47
Cc1ccc(C)c(NC(=O)Cc2cccs2)c1 | -5.9
COc1cc(C2C(C#N)=C(N)Oc3cc(N(C)C)ccc32)cc2c1OCO2 (stereo not shown) | 1.26
COc1cccc(Nc2nc(C)cc(C)c2C#N)c1 | 3.72
O=C(NCCNC(=O)c1ccc(F)cc1)c1ccc(F)cc1 | -1.52
Nc1nc2nccc(-c3ccccc3)n2n1 | 2.56
COc1cccc(-n2nnc3c(=O)n(CC(=O)c4ccc(Cl)cc4)cnc32)c1 | -2.16
COc1cccc2c3c(c(C)nc12)CC(C)S3 (stereo not shown) | -1.08
COc1cccc(C2C(C#N)=C(N)Oc3c2c(C)nn3-c2ccccc2)c1 (stereo not shown) | -4.12
CC1=C(C(=O)Nc2ccc(C)cc2)C(c2cc(Br)ccc2O)NC(=O)N1 (stereo not shown) | 12.2
Cc1oc(NC(=O)C(F)(F)F)c(C#N)c1C | 1.26
O=C1c2ccccc2C(=O)c2c1ccc1nonc21 | 2.54
COc1ccccc1CCNCc1cccc(C(F)(F)F)c1 | 10.5
O=C(Cc1cccc2ccccc12)Nc1ccc(S(=O)(=O)N2CCCCCC2)cc1 | -2.19
CCCCOc1ccc(C2C(C#N)=C(N)Oc3[nH]nc(COC)c32)cc1OC (stereo not shown) | 2.3
CCOc1ccc(S(=O)(=O)N2CCN(S(=O)(=O)c3ccc(OCC)cc3)CC2)cc1 | -0.185
NC(=O)c1c(NC(=O)C2CC=CCC2C(=O)O)sc2c1CCCCCC2 (stereo not shown) | 2.13

Compound | % Inhibition @ 10 uM [%]
CCOC(=O)C1=C(C)NC(=O)NC1c1ccc([N+](=O)[O-])cc1 (stereo not shown) | -5.2
Cn1c(=O)[nH]c(=O)c2c1nc(N1CCCCC1)n2Cc1ccc(Cl)cc1 | 2.03
CN(C)c1ccc(C(c2ccc(N(C)C)cc2)(c2ccc(N(C)C)cc2)C(F)(F)F)cc1 | -5.65
O=S(=O)(c1cccc(-c2cn3cccnc3n2)c1)N1CCOCC1 | 2.08
CCOc1ccccc1N(CC(=O)N1CCN(c2ccccc2)CC1)S(=O)(=O)c1ccccc1 | 1.72
CCOC(=O)c1c(NC(=O)/C(C#N)=C/c2ccc(OC)cc2)sc(C(C)=O)c1C | 1.37
COc1cc(OC)cc(C(=O)Nc2sc(C)c(C)c2C(N)=O)c1 | 5.97
CCN1CCN(C(=O)c2ccc(CS(=O)(=O)Cc3cccc(C)c3)o2)CC1 | -1.79
CCCCNC(=O)CC1Sc2ccccc2NC1=O (stereo not shown) | -1.79
CC(C)(C)C(/C=C\c1ccc(Cl)cc1Cl)n1nnnc1C1(Nc2ccc(Cl)cc2)CCCCC1 (stereo not shown) | 0.00784
OCCN(CCO)c1nc(O)ncc1F | 4.42
COc1ccc2nccnc2c1[N+](=O)[O-] | -4.96
CCOC(=O)c1cc(-c2ccc(OC)c(S(=O)(=O)N3CCC(C)CC3)c2)on1 | -4.52
O=C1/C(=C/c2ccccc2)CCC1C1CCCC1 (stereo not shown) | 12.7
CCc1c(-c2ccccc2)nc2ccccc2c1C(=O)NCc1ccco1 | -2.26
C[C@@H](C[C@H](NC(=O)c1cc2c(C(F)(F)F)nn(C)c2s1)C(=O)NCC#N)c1ccccc1 | -1.5
NC(=O)c1sc2nc(-c3cccnc3)ccc2c1N | 1.96
COc1ccc(CC(=O)Nc2cccc(C)c2)cc1OC | -1.17
CCCCSCC(O)COc1ccccc1 (stereo not shown) | -1.22
CC(NS(=O)(=O)c1cccc(C(F)(F)F)c1)C(=O)O (stereo not shown) | -3.74
CCOC(=O)c1sc2ncn3c(-c4ccc(C)cc4)nnc3c2c1C | 0.565
O=C(NCC1CCCO1)Nc1cnc2ccccc2c1O (stereo not shown) | -1.07
COc1ccc(-c2nc(CSCC(=O)NC3CCC(C)CC3)c(C)o2)cc1OC (stereo not shown) | -2.85
O=C(CCS(=O)(=O)c1ccc(Br)s1)NCc1cccs1 | -3.36
N#CC1=C(N)NC(S)=C(C(N)=O)C1c1ccccc1F (stereo not shown) | 3.92
CC1CC(=O)C2=C(C1)OC(N)=C(C#N)C2c1cc(Br)cs1 (stereo not shown) | 0.317

Compound | % Inhibition @ 10 uM [%]
N#Cc1ccc(-c2ccccn2)nc1SC/C=C/c1ccccc1 | -7.3
CCC1CCc2c(sc(N)c2C#N)C1 (stereo not shown) | 11.8
Cc1ccc(SC(C)C(=O)Nc2cccc(N(C)S(C)(=O)=O)c2)cc1 (stereo not shown) | 1.94
S=C(NCc1ccco1)NC1CCCC1 | 0.392
COc1ccccc1NC(=O)C1=C(C)Nc2nc(CCCO)nn2C1c1cccnc1 (stereo not shown) | -0.185
COc1ccc(C(=O)/C=C/c2c(C)[nH]c3ccccc23)cc1 | 19.1
O=C(COc1ccc(Cl)cc1Br)Nc1ccc(S(=O)(=O)N2CCCC2)cc1 | -0.132
Nc1c(C(=O)NCc2ccccc2)sc2nc3c(cc12)CN(Cc1ccccc1)CC3 | -4.74
CCc1ccc(-c2nc3cc(NC(=O)c4ccco4)ccc3o2)cc1 | -4.6
CCOc1ccc(CCNC(=O)C(CC(C)C)N2Cc3ccccc3C2=O)cc1 (stereo not shown) | -5.84
Cc1ccc(Cn2nc(C)c(NC(=O)c3nc4nc(C)cc(C(F)F)n4n3)c2C)cc1 | -0.958
CC1(C)CC(=O)c2c(O)cc(Cc3ccccc3)cc2O1 | -2.98
CC(=O)c1ccc(NC(=O)C(C)Oc2ccccc2)cc1 (stereo not shown) | -2.65
Clc1ccc(N2CCN(Cc3ccsc3)CC2)cc1 | -0.127
CC(C)C(=O)Nc1nsc(-c2ccc(Cl)cc2)n1 | -1.11
Cc1ccc(C(=O)O)cc1-c1ccc(C=C2C(=O)c3ccccc3C2=O)o1 | 0.189
COc1ccc(C(O)c2nccn2C)cc1 (stereo not shown) | -3.38
CCCCCn1nc(C)c2c(C)cc(O)nc21 | 0.968
O=C1CCCN1CCCNc1ncnc2c1c(-c1ccccc1)cn2-c1cccc(C(F)(F)F)c1 | 7.92
COc1ccc(CC(O)c2ccc(OC)c(OC)c2)cc1 (stereo not shown) | 4.77
CC1CCCCN1c1nn2nnnc2c2ccccc12 (stereo not shown) | -2.81
c1ccc2c(c1)CCC(NCC1CCCO1)C2 (stereo not shown) | -0.0908
O=c1[nH][nH]c(=O)c2cc([N+](=O)[O-])ccc12 | -0.239
Nc1nonc1-c1nc2ccccc2n1Cc1ccc(Cl)cc1 | 36.6
Cc1ccccc1-c1noc(C2CCCCC2)n1 | -3.08

Reference: PMC6919601, “Identification of Plasmodium dipeptidyl aminopeptidase allosteric inhibitors by high throughput screening” (PLoS ONE, 2019)
